Read counts are not given, so values of variants with three or more changes are uncertain.
B1: LINE1-mini (parent)
chain: GGCAGAGCUCAACACAGCGUGGCAAAGUGGCUGUGGCUAGACUGCC

Variants of: B1
Test: self-cleavage, relative activity (ratio to wild type); higher = more cleavage; in vitro, sequencing; the parent is a self-cleaving ribozyme

| Variant | self-cleavage |
| --- | --- |
| GGCAGAGAUCAAGCCAGCGUGGCAAAGUGGCUGUGGCUAGACUGCC [C8A C13G A14C] | 0.64 |
| GGCAGAGAUCAACCCAGCGUGGCAAAGUGGCCAUGGCUAGAUUGCA [C8A A14C U32C G33A C42U C46A] | 0.14 |
| GGCAGAGAUCAGCACAGUGUGGCAAAGUGGCUGUGGCUAGACUGCC [C8A A12G C18U] | 0.01 |
| GGCAGAGAUCGACACAGCGUGGCAAAGUGGCUGUGGCUAGAGUGCC [C8A A11G C42G] | 0.03 |
| GGCAGAGAUCAACAUAGCUUGGCAAAGUGGCUGUGGGUAGACUGCC [C8A C15U G19U C37G] | 0.04 |
| GGCAGAUCUCAACACAGCGUGGCAAAGUGGCUGGGGCUAGCCUGCC [G7U U34G A41C] | 0.08 |
| GGCAGAGAUUAACACGGCGUGGCAAAGUGGCUGUGGCUAGGCUGCC [C8A C10U A16G A41G] | 0.05 |
| GGCAGAGAUCAACCCAGCGUGGCAAAGUGGCUGUGGCUAGACUCCC [C8A A14C G44C] | 0.03 |
| GGCAGAGAUCAACAAAGCGUGGCAAAGUGGCUGUGGCUAGACUGUC [C8A C15A C45U] | 0.42 |
| GGCAGAGAUCAUCACAGCCUGGCAAAGUGGCUUUGGCUAGACUGCC [C8A A12U G19C G33U] | 0.1 |
| GGCAGAGAUCAACACAGCGUGGCAAUGUUGCUGUGGCUAGGCUGCC [C8A A26U G29U A41G] | 0.35 |
| GGCAGAGAUCAACACAGCGUGGCAAGGUGGCUUUGACUAAACUGCC [C8A A26G G33U G36A G40A] | 0.05 |
| GGCAGAGAUCCACACAGCGUGGGAAAGUGGCUGAGGCUAGACUCCC [C8A A11C C23G U34A G44C] | 0.02 |
| GGCAGAGAUCAACAAAGCAUGGCAAAGUGGCUGUGGAUAGACUGCC [C8A C15A G19A C37A] | 0.19 |
| GGCAGAGAUGAACACAGCGUGGCAAGGUGGCUGUGGCUAGACUGCC [C8A C10G A26G] | 0 |
| GGCAGAGAUAAACACAGCGUGGCAUAGUGGUUGUGGCUAGACUGCC [C8A C10A A25U C31U] | 0.03 |
| GGCAGAGAUCAACACAGAGUGGCAAAUUGGCUGUGGCUAGACUGCC [C8A C18A G27U] | 0.23 |
| GGCAGAGAUCAUCACAGCGUGGCAAAGUGGCUGUGGCUUGACUGCC [C8A A12U A39U] | 0.37 |
| GGCAGAGAUCAACUCAGCGUGGCAAAGUGGCUGUGGCUAGACUGAC [C8A A14U C45A] | 0 |

| Variant | self-cleavage |
| --- | --- |
| GGCAGAGAUCUACACAGCGUGGCAUAGAGGCUGUGGCUAGACUGCC [C8A A11U A25U U28A] | 0.02 |
| GGCAGAGAUCAGUACAGCGUGGCUAAGAGGCUGUGGGUACACGGCC [C8A A12G C13U A24U U28A C37G G40C U43G] | 0.1 |
| GGCAGAGAUCAACAAAGCGUGGCAAAGUGGCAGUGGCUAGACUGCC [C8A C15A U32A] | 0.06 |
| GGCAGAGAUAAACACAGCGUGGCACAGUGGCUUUGGCUAGUCUGCC [C8A C10A A25C G33U A41U] | 0.02 |
| GGCAGAGAUCUACACAGCUUGGCAAAGUGGCGGUGGCUACACUGCC [C8A A11U G19U U32G G40C] | 0.01 |
| GGCAGAGAUCAACGCAGCGUGGCAAAGUGGCUGUGGCUAGAUUGCC [C8A A14G C42U] | 0.27 |
| GGCAGAGAUUAACACAGCGGGGCAAAGUGGCUGUGGCUAGACUGCC [C8A C10U U20G] | 0.05 |
| GGCAGAGAUCAAUACAUCGUGGCAAAGUGGUUGUGGCUCGUCUGCC [C8A C13U G17U C31U A39C A41U] | 0.07 |
| GGCAGAGAUCAACACCGCGUGGCAAAGUGGCUGUGGCUAGGUUGCC [C8A A16C A41G C42U] | 0.31 |
| GGCAGAGAUCAACGCACCGUGGCAAAGUGGCUGUGGCUAGACUCCC [C8A A14G G17C G44C] | 0.02 |
| GGCAGAGAUUAACACAGUGUGGCAAAGUGGCUGUGACUAUACUGCC [C8A C10U C18U G36A G40U] | 0.03 |
| GGCAGAGAUCAAAACAGCGUGGCAAAGUGGCUGUGGCUAGACUACC [C8A C13A G44A] | 0.33 |
| GGCAGAGAUCAACAUAGCGUUGCAAAGAGGCUGUGGCUAGACUGCC [C8A C15U G21U U28A] | 0.23 |
| GGCAGAGAUCAACAUAGCGUUGCAAAGCGGCUGUGGCUAGACUGCC [C8A C15U G21U U28C] | 0.26 |
| GGCAGAGAUUAAUACAGCGUGGCAAAGUGGCUGUGGCUAGACUGCC [C8A C10U C13U] | 0.1 |
| GGCAGAGAUCUAGUCAGCGUGGCAAAGUGGCUGUGGCUACACUGCC [C8A A11U C13G A14U G40C] | 0.02 |
| GGCAGAGAUCAACAUAGCGUGGCAAAGUUGCUGUUGCUAGACUGCC [C8A C15U G29U G35U] | 0.21 |
| GGCAGAGAUCCACACAGCGUGGCAAAGUAGCUGUGGCUAGACUUCC [C8A A11C G29A G44U] | 0.02 |
| GGCAGAGAUAAACACAGAGUGGCAAAGUGGCUGUGGCUAGACUGCC [C8A C10A C18A] | 0.04 |

| Variant | self-cleavage |
| --- | --- |
| GGCAGAGAUCAACACCGCGUGGCAAACUGGCUGUGGCUAGACUGCC [C8A A16C G27C] | 0.1 |
| GGCAGAGAUCAGCACAGCGUGGGAAAGUGGCUGUGGCUAGAGUGCC [C8A A12G C23G C42G] | 0 |
| GGCAGAGAUCAACACAGCGUGGCUAAGUGUCUGUGCCUAGGCUGCA [C8A A24U G30U G36C A41G C46A] | 0.07 |
| GGCAGAGAUGAACACAGCGGUGCAACGUGGCUCUAGCUAGACUGCC [C8A C10G U20G G21U A26C G33C G35A] | 0.03 |
| GGCAGAGAUGAAUACAGUGUAGCAAAGUGGUUGUUGCUAGACUGCC [C8A C10G C13U C18U G21A C31U G35U] | 0.01 |
| GGCAGAGAUCAAUACAGCGUAGCAAAGUGGCUGAGUCUAGACUGCC [C8A C13U G21A U34A G36U] | 0.16 |
| GGCAGAGAUCAAAACAGCGUGGCAAAUUGGCUGGGGAUAGACUGCC [C8A C13A G27U U34G C37A] | 0.15 |
| GGCAGAGAUCAACACAGCGUGGCAGAGUCGCUGUGGCUAGACUGCC [C8A A25G G29C] | 0.04 |
| GGCAGAGAUCAGCACAGCGAGGCUAAUUGGCUGUGGCUAGACUGCC [C8A A12G U20A A24U G27U] | 0.03 |
| GGCAGAGAUCACCAAAGUGUGGCAAAGUGGCUGUGGCUAGACUGCC [C8A A12C C15A C18U] | 0.03 |
| GGCAGAGAUUAACACAGCGUGGCAAAGUGGCGGUGGCUAGACUGCC [C8A C10U U32G] | 0.11 |
| GGCAGAGAUCAACGCAGUGUGGCAAAGUGGCUGUGGCUAGAGUGCC [C8A A14G C18U C42G] | 0 |
| GGCAGAGAUUAACCCAGCGUGGCAAAGUGGCUGUGGCUAGACUGCC [C8A C10U A14C] | 0.02 |
| GGCAGAGAUCAACACAGGGUGGCAAAGUGGCUGUGGCUAGCCUGCC [C8A C18G A41C] | 0.02 |
| GGCAGAGAUCAACAAAGCGUGACAAAGCGGCUGUGGUUAGACUGCC [C8A C15A G22A U28C C37U] | 0.13 |
| GGCAGAGAUCAAGACAGCGUGGCAAAGUGGCUUUGGCUAUACUGCC [C8A C13G G33U G40U] | 0.63 |
| GGCAGAGAUCAACAAAGCGUGGUAAAGUGGCUGUGGCUAGACUGCC [C8A C15A C23U] | 0.27 |
| GGCAGAGAUCAACUCAGCGUGGCAAAGUAGCUGUGGCUUGACUGCC [C8A A14U G29A A39U] | 0.19 |
